We go through 22 compounds from paper PMC12040169 (PLOS Biology, 2025).

The other results are listed elsewhere or left out.

For the assay, the system named is T1, C. trachomatis L2/434/Bu expressing GFP (CTL2-GFP).
T1 construct: L2/434/Bu GFP intracellular growth in HeLa cells
Also on record: species or system HeLa; C. trachomatis total inclusion area by high-content imaging, normalised to DMSO. To be noted: total inclusion area; 28.5 h, 10 µM; inhibitor. The gist of the method: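 Host cell viability was gauged from Hoechst-stained nuclei counts, while chlamydial growth was taken from total inclusion area and inclusion number per well. Cells were fixed and imaged by high-content microscopy once bulk GFP and resorufin fluorescence had been measured.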
For the compound `O=c1cc(O)c2c(=O)[nH]c(=O)n(-c3ccccc3)c2[nH]1` [CBK287907], the “% of control remaining” value was 107.826.
For `O=c1[nH]c2ccccc2n1CCCN1CCN(c2nccnc2Oc2ccc(F)cc2)CC1` [CBK083027T], the “% of control remaining” value worked out at 77.0119.
Consider `COc1ccc(Br)cc1S(=O)(=O)Nc1ccc(C(=O)O)cc1` [CBK034047], for which the “% of control remaining” value is recorded as 86.743.
With `O=[N+]([O-])c1cc(/C=N/Nc2nnn[nH]2)ccc1N1CCOCC1` [CBK262199], the “% of control remaining” value is 99.422.
Turning to `O=C(Nc1cccnc1)c1cc(S(=O)(=O)N2CCCCC2)c(Cl)cc1Cl` [CBK264567], the “% of control remaining” value came to 92.7727.
The same measure for `Cc1noc(NS(=O)(=O)c2ccc(NC(=O)C3COc4ccccc4O3)cc2)c1C` (stereo not shown) [CBK264923]: 85.6458.
On to `COc1cc(/C=C/c2nc(O)c([N+](=O)[O-])c(=O)[nH]2)ccc1OCC(=O)N1CCOCC1` [CBK267168], for which the “% of control remaining” value worked out at 113.271.
The same measure for `O=C(CSc1ccc(Cl)cc1)NNC(=O)c1cccc([N+](=O)[O-])c1` [CBK268384]: 93.9352; for `S=c1ccc(N/N=C/C2CC=CCC2)n[nH]1` (stereo not shown) [CBK018655]: 91.695.
The same measure for `Cc1ccc(S(=O)(=O)N2CCCC(C(=O)O)C2)cc1` (stereo not shown) [CBK100948]: 78.3131.
Next, `COc1ccc(C(=O)COc2nc3c(C(F)(F)F)cc(C4CC4)nc3o2)cc1` [CBK269498]: 57.7223.
Consider `CC(C)C(=O)N[C@H]1C[C@@H](Cc2cc(CN3CCOCC3)on2)C1(C)C` [CBK289248], for which the “% of control remaining” value is 100.655.
Next, `O=C(O)[C@H]1CCCN1Cc1cc(Cl)ccc1OCCCn1ccnc1` [CBK307436]: 28.443; `CCc1ccc(-c2ccc(-c3cc(C(=O)O)c4cc(Br)ccc4n3)o2)cc1` [CBK300543]: 48.1526; `COc1ccc(NC(=O)CC(CN(C)Cc2ccccc2)C(=O)O)cc1` (stereo not shown) [CBK286854]: 99.6212.
`COc1ccc(CNC(=O)[C@H]2C=CCN2C(=O)c2cccs2)cc1` [CBK282325]: the “% of control remaining” value is given as 95.5488.
The same measure for `CCOc1ccc(S(=O)(=O)N2CCC(C(=O)O)CC2)cc1Cl` [CBK269759]: 89.1335; for `O=C(O)c1ccccc1-c1ccc(-c2cc(C(=O)O)c3cc(F)ccc3n2)o1` [CBK269051]: 96.4866; for `CCCCOc1nccnc1/C=C/c1ccccc1` [CBK106890]: 103.09.
Next, `Cc1cc(=O)[nH]c(SCC(=O)O)c1C#N` [CBK019224]: 87.7269.
In the case of `COC(=O)c1cccc(OCC(O)Cn2nc(C)c(C)c(C#N)c2=O)c1` (stereo not shown) [CBK305563], the “% of control remaining” value is listed as 77.3018.
Take `CCCCCCc1ccc(NS(=O)(=O)c2cc3c(NCCN(C)C)nccc3s2)cc1` [CBK038253C]: the “% of control remaining” value is 77.4198.
